Data taken from publication PMC4336329 (PLoS ONE, 2015).
Among all 310,000 compounds or so, about 2,200 (0.71%) showed an effect of 50% or more. Effects have a minus sign here. Some of the results follow.

What follows are compounds tested against human ether-à-go-go-related gene (hERG) potassium channel (human, UniProt Q12809) (assay: primary screen, population patch clamp on CHO cells stably expressing hERG).
human ether-à-go-go-related gene (hERG) potassium channel, sequence (Q12809 whole entry, looked up): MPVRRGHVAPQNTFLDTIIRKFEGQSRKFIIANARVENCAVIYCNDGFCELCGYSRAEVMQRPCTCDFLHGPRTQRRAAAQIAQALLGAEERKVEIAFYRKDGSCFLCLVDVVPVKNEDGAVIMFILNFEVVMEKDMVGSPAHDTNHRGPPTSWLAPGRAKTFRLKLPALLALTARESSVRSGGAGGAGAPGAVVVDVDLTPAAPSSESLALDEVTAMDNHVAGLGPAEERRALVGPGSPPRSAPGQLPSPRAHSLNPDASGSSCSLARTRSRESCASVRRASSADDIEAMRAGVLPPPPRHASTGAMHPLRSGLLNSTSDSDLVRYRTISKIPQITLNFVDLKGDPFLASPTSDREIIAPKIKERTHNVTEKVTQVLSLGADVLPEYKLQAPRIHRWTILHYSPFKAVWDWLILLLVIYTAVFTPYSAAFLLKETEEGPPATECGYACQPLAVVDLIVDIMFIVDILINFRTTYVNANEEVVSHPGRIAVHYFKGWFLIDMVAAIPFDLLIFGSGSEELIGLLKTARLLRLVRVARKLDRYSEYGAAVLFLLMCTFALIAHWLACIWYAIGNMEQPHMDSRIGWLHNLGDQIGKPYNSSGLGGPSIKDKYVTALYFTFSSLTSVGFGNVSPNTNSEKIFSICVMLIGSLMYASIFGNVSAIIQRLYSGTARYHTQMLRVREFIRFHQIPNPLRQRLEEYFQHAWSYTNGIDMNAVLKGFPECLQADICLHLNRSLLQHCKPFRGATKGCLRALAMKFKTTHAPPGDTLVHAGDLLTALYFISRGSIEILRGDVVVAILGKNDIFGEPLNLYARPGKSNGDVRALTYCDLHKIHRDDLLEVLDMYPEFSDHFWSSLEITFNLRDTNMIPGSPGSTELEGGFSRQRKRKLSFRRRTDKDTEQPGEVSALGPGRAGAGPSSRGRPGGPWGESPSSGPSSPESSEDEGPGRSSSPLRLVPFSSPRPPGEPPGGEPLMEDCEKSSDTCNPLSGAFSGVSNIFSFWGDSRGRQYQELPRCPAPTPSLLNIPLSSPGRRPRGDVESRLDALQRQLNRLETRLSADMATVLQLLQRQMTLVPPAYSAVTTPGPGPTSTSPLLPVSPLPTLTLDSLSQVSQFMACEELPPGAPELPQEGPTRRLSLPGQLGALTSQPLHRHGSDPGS

Row | Compound | hERG current change (%, negative = inhibition) at 1uM [%]
1 | CC(C)c1c(C(=O)N/N=C/c2ccc(Cl)cc2Cl)nnn1-c1nonc1N | 25.2
2 | CCN(CC)c1ncnc2sc(C(=O)N3CCN(c4ccc(OC)cc4)CC3)c(C)c12 | -12.1
3 | O=C(NC(Cc1ccccc1)C(=O)O)NC12CC3CC(CC(C3)C1)C2 (stereo not shown) | 13.1
4 | CC(C)OCCCNC(=O)c1cn(C)c2ccc(S(=O)(=O)N(C)C3CCCCC3)cc2c1=O | 11.6
5 | Cc1cc(OC(=O)N2CCCCC2)cc(C)c1Cl | 3.32
6 | O=[N+]([O-])c1cc(S(=O)(=O)C(F)(F)F)ccc1Sc1nc2ccccc2s1 | 15.3
7 | CCC1CCCCN1C(=O)c1ccc(OC2CCN(C(=O)C3CC3)CC2)cc1 (stereo not shown) | 15.5
8 | COc1cc(C(=O)Nc2nc3ccccc3[nH]2)cc(OC)c1OC | -15.9
9 | CCc1cccc(C)c1NC(=O)C1CCN(c2nn3c(=O)cc(C)nc3s2)CC1 | 13
10 | NS(=O)(=O)c1ccc(CCNC(=O)C2CCC(Cn3c(=S)[nH]c4ccccc4c3=O)CC2)cc1 (stereo not shown) | 10.6
11 | COc1cc(CC(=O)OCC(=O)Nc2cccc([N+](=O)[O-])c2)cc(OC)c1OC | -5.33
12 | COc1ccccc1N1CCN(C(=O)c2cc(C)on2)CC1 | 8.12
13 | COC(CNc1ccc([N+](=O)[O-])c(NCC(OC)OC)c1C#N)OC | 13.5
14 | OCC12CO[C@@H]3c4ccccc4[C@H](OC1)N32 (stereo partly shown) | 15.3
15 | CCC(C(=O)NCCCN1CCN(CCCNC(=O)C(CC)c2ccccc2)CC1)c1ccccc1 (stereo not shown) | 21.7
16 | Cc1ccc(SCC(=O)N(C)CC(=O)Nc2cccc(F)c2)cc1 | -1.61
17 | COc1ccccc1NS(=O)(=O)c1cc(C(=O)NCc2ccco2)ccc1C | -4.38
18 | Cc1c(C(=O)N2CCN(S(=O)(=O)c3cc(F)ccc3F)CC2)oc2ccccc12 | 8.26
19 | CCCNC(=O)c1ccc(COc2ccc(Cl)cc2)o1 | -1.1
20 | Cc1cc(NS(=O)(=O)c2ccc(NC(=O)CSc3nc4sc(C(=O)O)c(C)c4c(=O)[nH]3)cc2)no1 | 17.2
21 | Cc1cccc(OC(C)C(=O)N2CCCN(C)CC2)c1C (stereo not shown) | 6.41
22 | Cc1ccc(CCSc2ccc(C(C)C)cc2)cn1 | -3.25

Row | Compound | hERG current change (%, negative = inhibition) at 1uM [%]
23 | CN(CC(=O)Nc1ccc(F)cc1)C(=O)COC(=O)c1ccc(=O)n(Cc2ccccc2)n1 | 1.39
24 | O=C(COC(=O)CCc1nc2ccccc2n1-c1ccccc1)Nc1cccc(Cl)c1 | 6.11
25 | CCCCCCCCS(=O)C1CCS(=O)(=O)C1 (stereo not shown) | 6.95
26 | O=C(CC1Sc2ccccc2NC1=O)c1ccc(Br)cc1 (stereo not shown) | 18
27 | Cc1noc(C)c1C(=O)NCc1cccs1 | 9.84
28 | Cc1c(/C=N/NC(=O)c2ccccc2O)c2ccccn2c1C(=O)c1ccc(F)cc1 | 6.6
29 | Cc1ccc(Nc2nc(N)nc(CSC(=S)N3CCN(c4ccccc4)CC3)n2)cc1 | 13.4
30 | CC(=O)Nc1cc(C(=O)NCc2ccco2)ccc1Sc1ccc(F)cc1 | 1.14
31 | C(CNC1C2CC3CC(C2)CC1C3)CN1CCOCC1.Cl (stereo not shown) | 4.52
32 | Cc1cc(C(=O)NCC(=O)OCC(=O)N(C(C)C)C(C)C)ccc1[N+](=O)[O-] | 5.73
33 | Cc1[nH]c(=O)[nH]c(=O)c1S(=O)(=O)Nc1ccc(F)c(Cl)c1 | 15.8
34 | Nc1[nH]c(=O)[nH]c(=O)c1N=Nc1ccccc1Cl | 20.2
35 | O=C(O)c1ccc(NS(=O)(=O)c2ccc3c(c2)C(=O)c2cc(S(=O)(=O)Nc4ccc(C(=O)O)cc4)ccc2-3)cc1 | 7.79
36 | CCCc1nc(N)c(C#N)c(-c2cccnc2)c1CC | -1.45
37 | Cc1cccc(C(=O)Nc2ccc(C(=O)/C=C/c3ccncc3)cc2)c1 | 9.29
38 | CNC(=O)C(=O)N/N=C/c1ccc(Br)cc1 | 11.4
39 | COC(=O)c1cnc(NNS(=O)(=O)c2ccc(C(F)(F)F)cc2)nc1C(F)(F)F | 10.7
40 | CCCOc1ccc(/C=N/NC(=O)CN2CCCCC2)cc1 | -9.28
41 | Oc1ccc(/C=N/Nc2cc(N3CCOCC3)nc(N3CCOCC3)n2)cc1 | 5.21
42 | Cc1cc(N2C(=O)C(O)=C(C(=O)c3cc4ccccc4o3)C2c2ccc(OC(C)C)cc2)no1 (stereo not shown) | 6.85
43 | CCc1ccc(C2CC(=O)N(c3cccc(F)c3)C3=C2C(=O)OC3)cc1 (stereo not shown) | -19.1
44 | O=C(COc1cc2oc(=O)c3c(c2cc1Cl)CCCC3)NCc1cccnc1 | -2.19

Row | Compound | hERG current change (%, negative = inhibition) at 1uM [%]
45 | COC(=O)c1ccccc1NC(=O)N1C[C@@H]2C[C@@H](C1)c1cccc(=O)n1C2 | -9.45
46 | CCc1ccc(NC(=O)C(=O)NCC2CCCO2)cc1 (stereo not shown) | 6.95
47 | Cc1ccc(N/N=C2\CCS(=O)(=O)c3sccc32)cc1 | 14.2
48 | COC(=O)CC(c1ccc(OC)c(OC)c1)c1ccc(OC)c(OC)c1 | 6.11
49 | Cc1ccc(-c2nn(-c3ccccc3)cc2CC(=S)N2CCOCC2)cc1 | 15.9
50 | COCCCNc1oc(-c2ccccc2OC)nc1C#N | -13.1
51 | O=C(c1cc(N2C(=O)C3C4CCC(C4)C3C2=O)ccc1Cl)N1CCN(c2ccc(F)cc2)CC1 (stereo not shown) | -19
52 | Cc1c(-c2cccs2)[n+](=O)c2c(n1[O-])CCC2 | 3.42
53 | COc1ccc(-c2nc(-c3ccncc3)no2)c(OC)c1 | 13.8
54 | Cc1ccc(CN2CCCNC2=O)cc1 | -8.67
55 | COc1ccc(C2N(c3ccc(OC)cc3)C(=S)N3CCCN23)cc1 (stereo not shown) | 6.39
56 | CCc1cc(=O)n2[nH]c(C)c(-c3ccccc3OC)c2n1 | 6.99
57 | CC(=O)c1cc(C(=O)N2CCc3c([nH]c4ccccc34)C2C2CCCCC2)[nH]n1 (stereo not shown) | 14.9
58 | CCn1cc(C(=O)OCC(=O)Nc2cccc(Cl)c2Cl)c(=O)c2ccc(C)nc21 | 13.7
59 | COc1cccc(N(CC(=O)N/N=C(\C)c2cccs2)S(C)(=O)=O)c1 | 5.26
60 | COc1ccccc1NC(=O)CSCC(=O)N1c2ccccc2CCc2ccccc21 | -0.734
61 | CCN(CCCNC(=O)C1CCN(S(=O)(=O)CC)CC1)c1ccccc1 | -2.26
62 | Cc1cccc(CCNC(=O)C2CCC(CNc3c(N4CCCC4)c(=O)c3=O)CC2)c1 (stereo not shown) | 7.13
63 | Cc1nc(Nc2cccc(O)c2)c2oc3ccccc3c2n1 | 11.8
64 | CC(=O)Nc1c2c(nn1-c1ccccc1C)CS(=O)(=O)C2 | 15
65 | Cc1cccc(OCCc2nnc(N)s2)c1C | 12.1
66 | O=C(Nc1ccc(F)cc1)N1CCC(c2nc3c(nnn3Cc3ccccc3Cl)c(=O)[nH]2)CC1 | 11.6

Row | Compound | hERG current change (%, negative = inhibition) at 1uM [%]
67 | C=CCN(CC(=O)NC1CCCC1)C(=O)C(=O)Nc1ccc2c(c1)OCCO2 | 19.6
68 | O=C(Nc1cc(C(F)(F)F)ccc1N1CCOCC1)c1ccccc1 | 14
69 | O=C(NCc1nc(-c2ccccc2)cs1)c1ccccc1 | 5.98
70 | CCSc1nnc(NC(=O)CSc2nc3c(cc2C#N)CCCC3)s1 | 10.8
71 | Cc1ccc(/C=N/n2c(=O)c(C(C)(C)C)nn3cnnc23)cc1 | 4.19
72 | CC(C)(C)NC(=O)CN(CCN1CCOCC1)C(=O)CNS(=O)(=O)c1ccc(Cl)cc1 | 19.7
73 | O=C(NCc1ccccc1)C(=O)NCC(c1ccco1)N1CCOCC1 (stereo not shown) | 3.72
74 | CC1CCCN(C(=O)c2ccc(S(=O)(=O)Nc3ccccc3Cl)cc2)C1 (stereo not shown) | 12.6
75 | N#C/C(=C1\C(=O)Nc2c(Cl)cc(Cl)cc21)c1nnc2n1CCCCC2 | 8.09
76 | CCOC(=O)c1ccc(NC(=O)C2CCN(S(=O)(=O)c3c(C)nn(C)c3C)CC2)cc1 | 0.89
77 | C=CCNC(=S)N1CCN(c2cccc(C(F)(F)F)c2)CC1 | 1.47
78 | Cc1ccc(OCCn2ccc(=O)[nH]c2=O)cc1C | -0.181
79 | CC(=O)Nc1ccc(S(=O)(=O)Nc2ccc(N3CCOCC3)c(F)c2)cc1 | -1.81
80 | O=C(CSc1n[nH]c(-c2ccccc2)n1)Nc1ccc(N2CCOCC2)cc1 | 15
81 | Cc1ccc(OCc2ccc(C(=O)N3CCCC3)o2)cc1C | -8.55
82 | CCS(=O)(=O)c1ccccc1C(=O)NC1CCCc2ccccc21 (stereo not shown) | 16.5
83 | OCC[C@H]1C[C@@H](O)[C@H](O)[C@]2(CCCCO2)O1 | 9.2
84 | C=CCc1cccc2cc(C(=O)NC(C)(C)C)c(=O)oc12 | 8.38
85 | O=C(Nc1ccc2c(c1)OCO2)N1CCN(c2ccc(F)cc2)CC1 | 4.01
86 | CCOC(=O)C(=O)Nc1nnc(Cc2ccc(OC)c(OC)c2)s1 | 8.39
87 | CCOCCCNC(=O)C1CCN(C(=O)N(C)C)CC1 | 16.1
88 | Cc1ccc(Nc2nc3c(c(=O)[nH]c(=O)n3C)n2Cc2ccc(F)cc2)cc1 | 19
